{
  "source": "paper PMC12136788",
  "binders": {"B1": {"name": "chr4:104905227:104905228:+_ENSMUSG00000028517_ENSMUST00000064139|mus_mus|motif|central (ssRNA)", "RNA": "GGGAGUUCUACAGUCCGACGAUCAACGGAAUCUUACAAAAAUACUGACAAUUUAAUGUUUUUAUACAGUUUUUUUUCUCGGGUUGCAGUUAUUUCAUUGUAAAACAAUGGCUACCACAGAACUAUAUCUUUAGUUGAGAUUAACAACAGAGGAUUGAGCAUCA"}, "B2": {"name": "chr8:104442852:104442853:+_ENSG00000164934_ENST00000297579|hu_mus|FALSE|FALSE (ssRNA)", "RNA": "GGGAGUUCUACAGUCCGACGAUCCCUCAUUUCCAGGAUAACCUUUUUCAAAGGAGUAGCUUGCCGCAUAUCAUACAGUACUAUAUUCCUAUCAGAAGCACAACUUCCCAAGAGAAAUGUCUCAACAGGGUUAAAUUUAACACUCAACAGAGGAUUGAGCAUCA"}, "B3": {"name": "chr8:24301720:24301721:-_ENSMUSG00000031545_ENSMUST00000167004|mus_hu|FALSE|FALSE (ssRNA)", "RNA": "GGGAGUUCUACAGUCCGACGAUCUUCCAGAGGUUUUACAUGGUUUUCCUGCCCAAGAGCAUUCAACAGAUAAAUCUGUCCUGCAGAUCUGUCACUACCAGAAGUACGAAGAAGAAUUAAACUUGGUGCCAGAAAAAUCCUGAUCAACAGAGGAUUGAGCAUCA"}, "B4": {"name": "chr14:102368134:102368135:+_ENSG00000078304_ENST00000445439|hu_mus|FALSE|FALSE (ssRNA)", "RNA": "GGGAGUUCUACAGUCCGACGAUCAAGAGGCUCCAUGAUCUUCACAAACUCUGAUGGUUCAAUUACAUCUAAAAUUUCUUCUAAUUCAUUUAAGAACAUUACUUCUUUUGGACUGUGAGUCUUUGGCCAGUAUUUGAGAAGUGCCAACAGAGGAUUGAGCAUCA"}, "B5": {"name": "chr10:120830595:120830596:-_ENSG00000107581_ENST00000369144|hu_hu|FALSE|FALSE (ssRNA)", "RNA": "GGGAGUUCUACAGUCCGACGAUCUUUGAAAGCUUGCUGGGCAAUAUCAUGGUACAGGCGCUCUACUCUAGAAUUGUUUCUAAGAAGGUCCAAACACUGCCUGUAAGACUCCCACAGGAAUUUAACCCAUGGAGUUAAAAGUAACAACAGAGGAUUGAGCAUCA"}, "B6": {"name": "chr12:101444792:101444793:+_ENSMUSG00000001175_ENSMUST00000110082|mus_hu|FALSE|FALSE (ssRNA)", "RNA": "GGGAGUUCUACAGUCCGACGAUCGAUGUGUAGCUUGAUCUUUAGGGGACAGGACCACCAACCAAUACAUGCAGAUUUUGUGUGUGUGGACAGAAGGUACUUUUGACAUUCAGUUUUGCUAUAUAGAAACAGAAUGAAUAAAUGCAACAGAGGAUUGAGCAUCA"}, "B7": {"name": "chr2:216981417:216981418:+_ENSG00000079246_ENST00000392132|hu_hu|hu_hu_hu_mus_True|1_8 (ssRNA)", "RNA": "GGGAGUUCUACAGUCCGACGAUCCUGAUACUGGUCCUUGCCAGCAAGGGCAUUAUCAGUGCCAUCUGUGCCAUAGAGGACUAACGCAAUCUCAUCUUUGCUCUCCGAAAAUACCUGUCGUUGGACAAACAUGGUUAUCACCUUCAACAGAGGAUUGAGCAUCA"}, "B8": {"name": "chr4:144449117:144449118:+_ENSG00000153147_ENST00000283131|hu_hu|FALSE|FALSE (ssRNA)", "RNA": "GGGAGUUCUACAGUCCGACGAUCCACUAUUUCUGACAACUUAGAUUUUUCAUUUUUGAUCCUGUGAGCUUCAUCUAUUACUAAGUAUCUCCAAUUAAAUUUUUUGAACACAGACUUCUCUUUAAUAAGCAUUUCAUAAGAUGUCAACAGAGGAUUGAGCAUCA"}, "B9": {"name": "chrX:69798090:69798091:-_ENSMUSG00000031343_ENSMUST00000055966|mus_mus|mus_mus_mus_hu_False|28_48 (ssRNA)", "RNA": "GGGAGUUCUACAGUCCGACGAUCAAGUCCCCGGGUUCUUGUCGUCUUGAUUCCCCUUGACCAGUGGUUCCAGGGAGAAUAUUAAUCAGGAGAAGAAUCCCAAGGCUGGUCACAUAACAGUGACUUGUUUGUGUGAUUAUCAUCCAACAGAGGAUUGAGCAUCA"}, "B10": {"name": "chr4:140556289:140556290:+_ENSMUSG00000036622_ENSMUST00000037055|mus_mus|mus_mus_mus_hu_False|1_38 (ssRNA)", "RNA": "GGGAGUUCUACAGUCCGACGAUCGAUGGAGCUCACCAGGCCCCCUUUUGCCGUGCAGAACCCUGUGCGGGUCACCACUGCCAGGACGUGCGGUCCCACGUAGGCUCGGGCCUGCAAGAUGAGGGUCCCGCAGAAGAGGGUGUGCAACAGAGGAUUGAGCAUCA"}, "B11": {"name": "chr2:9570881:9570882:+_ENSG00000119203_ENST00000238112|hu_mus|hu_hu_hu_mus_False|98_98 (ssRNA)", "RNA": "GGGAGUUCUACAGUCCGACGAUCACUUGUCUUCUGAAGAAACCAGGGCAGGGCUCCACAGUGAUCCAAAUGGAAAUGACUGAUCAACAGAAGGUCGAUCUCAGCUGGGUCGAUAAGGUCAAUGUAAGGAAGGGCAUCCAUUCCCAACAGAGGAUUGAGCAUCA"}, "B12": {"name": "chr3:33945423:33945424:+_ENSMUSG00000027680_ENSMUST00000167354|mus_mus|FALSE|FALSE (ssRNA)", "RNA": "GGGAGUUCUACAGUCCGACGAUCGGUAUUUUUUUUGACAGUUUUAUUUUGAUUGACAGGCCGAAGUCGUUCAAAUGUGACUAUUUCAUUGUAAGUGGCAUCACAAGCAGCAUAUUCAAUGACAUAAAACUCGCCUUUCAUCAUCAACAGAGGAUUGAGCAUCA"}, "B13": {"name": "chr5:38529174:38529175:-_ENSMUSG00000029126_ENSMUST00000031009|mus_hu|FALSE|FALSE (ssRNA)", "RNA": "GGGAGUUCUACAGUCCGACGAUCAAGUAGCUCAAGCUUACCAGAAAUUACAUUUCCACUUUUCCCACCCAGCUCAUUUCUUUAAAAACUAAUGGGGCUAUUGGUGCAAAUUUAUUCAUAAUAGAAGUGAACCAGAGGGCCAGUCAACAGAGGAUUGAGCAUCA"}, "B14": {"name": "chr7:65705844:65705845:+_ENSG00000169902_ENST00000304842|hu_mus|hu_hu_hu_mus_False|1_28 (ssRNA)", "RNA": "GGGAGUUCUACAGUCCGACGAUCAAACGGAUCUUUGUUACAUAAAUAAGGUGCCGGCUCCCCAUGUUUAACAAUGACCUCCAGAAGGAAGGCUUGCAUGGCAGAAUCCAGCACUUCAUCUGUGACACCCGCCUCAUCCAGGCGCAACAGAGGAUUGAGCAUCA"}, "B15": {"name": "82109858_82109978_193_3pUTR_ENSMUSG00000022456_ENSMUST00000023095|mouse|control|control (ssRNA)", "RNA": "GGGAGUUCUACAGUCCGACGAUCGAUAAUGGUGUCAAUGCCAAUGUAGCCUAGCAGGUUGGAGUUGAUGCUGACCGGCUUCAUGGGCACCGCCGGCUUAGGCCUGGGCUCAGGUACCAGCUCAGACAUGGCUGCGUCCGUCCUCAACAGAGGAUUGAGCAUCA"}, "B16": {"name": "chr5:156566098:156566099:-_ENSG00000155868_ENST00000420343|hu_mus|FALSE|FALSE (ssRNA)", "RNA": "GGGAGUUCUACAGUCCGACGAUCGGGUCGAUAUUCAUUUAUAAGAUGAUGUACAUGUACAAAAAGUAGCUUAAGAUCUUCUAGCUUUUCUUCUCGUUUUAUACUCCCAGGACUUCUUAUUAAGAUGUCUAAAAGGUCUAAGAACAACAGAGGAUUGAGCAUCA"}, "B17": {"name": "chr10:33214929:33214930:-_ENSG00000150093_ENST00000302278|hu_hu|hu_hu_hu_mus_True|78_108 (ssRNA)", "RNA": "GGGAGUUCUACAGUCCGACGAUCAACAAGUUCAUUAAAAAACUCUCCUCUGUCAGUAAGACUGAGCACAUUUUUGUAGCUAAAUGGGCUGGUGCAGUUUUGUUCACUUGUACAAGGAUUUCUUAGCUUUGCUGGGGUUGUGCUCAACAGAGGAUUGAGCAUCA"}, "B18": {"name": "chr8:15480645:15480646:+_ENSG00000104723_ENST00000503731|hu_mus|FALSE|FALSE (ssRNA)", "RNA": "GGGAGUUCUACAGUCCGACGAUCCAUUCUGAAGAUCGAGCGCCUGGAACUCCAUUCCAUCAGCUGCUCCACUUUUUCAGCCAAAAGGUUCUCCUUUUUCUUCUGUCCGCCCCCGAGCUGGAUGCAGAGCAGCAGCAGCAAGAGCAACAGAGGAUUGAGCAUCA"}, "B19": {"name": "chr1:186329063:186329064:-_ENSG00000047410_ENST00000367478|hu_mus|FALSE|FALSE (ssRNA)", "RNA": "GGGAGUUCUACAGUCCGACGAUCUUUGGCUUCCACUUCUUUUACUAUCUCAUCCAGAUACUUAUUAAUCCUUUUAUUUUCUUGUUUUUCCAAAAGCAACUGAUCCUGAGUUUCCACAUAAGCAUUAUAUAGCUCAGUUAAUUUCAACAGAGGAUUGAGCAUCA"}, "B20": {"name": "chr9:115598534:115598535:+_ENSG00000148158_ENST00000374232|hu_hu|motif|central (ssRNA)", "RNA": "GGGAGUUCUACAGUCCGACGAUCCAGCUUGUAGCCGCCAGUGACGUGCUUGACUGACUCGCCCAUUCUGGUCAGCAAUGCGGUCCCUUGCUUCUUGUAGGCGUUCAGGUCCUUAGCAGUAAGGAAAAUAUUAAAGUGUUCAUUCAACAGAGGAUUGAGCAUCA"}, "B21": {"name": "chr4:107938606:107938607:-_ENSMUSG00000034636_ENSMUST00000043616|mus_hu|FALSE|FALSE (ssRNA)", "RNA": "GGGAGUUCUACAGUCCGACGAUCAACAUCCAGAGAAACAAGGUUAGGUAGGAUGUCUUUUUGUUCUAGUAAGCGAAGAGCUAUGUCUGAUGUAAACUGUUUAUCAUCUGAGAUAUCAAGAUGAUUCAGAUGUUUGAGUUCCCGCAACAGAGGAUUGAGCAUCA"}, "B22": {"name": "chr1:151007788:151007789:+_ENSG00000143363_ENST00000271620|hu_hu|FALSE|FALSE (ssRNA)", "RNA": "GGGAGUUCUACAGUCCGACGAUCUGGGUCAACACGCCAUGAACCACACCCCUAUUCGUGCUACAUGAGGCUGAGUCCUUGCUACAACCACACAGAAAUACAGACAAUCAAGUGAACCUGAGCACCCCCAGGGAUAACAGAAGACAACAGAGGAUUGAGCAUCA"}},
  "note": "This is one part of the list.",
  "data": [
    {"biological_target": "T1, UNK ZnF1-3 (human, UniProt Q9C0B0 31-174)", "T1 sequence": "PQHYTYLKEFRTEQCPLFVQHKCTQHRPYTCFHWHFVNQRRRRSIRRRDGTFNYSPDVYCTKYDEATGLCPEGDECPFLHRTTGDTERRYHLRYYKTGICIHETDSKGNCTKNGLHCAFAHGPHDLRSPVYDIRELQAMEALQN", "assay": "nsRBNS (natural sequence RNA bind-n-seq); RBNS binding buffer (assumed for nsRBNS): 25 mM Tris pH 7.5, 150 mM KCl, 3 mM MgCl2, 0.01% Triton X-100, 500 ug/ml BSA, 20 U/ml SUPERase-In, 4 C; UNK is unkempt and MSI1 is Musashi-1; names of the RNAs are library labels; protein concentration not given here; high values mean tight binding", "units": {"binding signal": "enrichment R"}, "values": [
      {"binder": "B1", "binding signal": 0.434},
      {"binder": "B2", "binding signal": 1.26},
      {"binder": "B3", "binding signal": 1.34},
      {"binder": "B4", "binding signal": 0.737},
      {"binder": "B5", "binding signal": 0.815},
      {"binder": "B6", "binding signal": 1.57},
      {"binder": "B7", "binding signal": 0.687},
      {"binder": "B8", "binding signal": 1.51},
      {"binder": "B9", "binding signal": 0.538},
      {"binder": "B10", "binding signal": 0.381},
      {"binder": "B11", "binding signal": 1.52},
      {"binder": "B12", "binding signal": 0.956},
      {"binder": "B13", "binding signal": 1.3},
      {"binder": "B14", "binding signal": 0.307},
      {"binder": "B15", "binding signal": 0.447},
      {"binder": "B16", "binding signal": 0.432},
      {"binder": "B17", "binding signal": 1.15},
      {"binder": "B18", "binding signal": 0.999},
      {"binder": "B19", "binding signal": 0.611},
      {"binder": "B20", "binding signal": 0.912},
      {"binder": "B21", "binding signal": 1.07},
      {"binder": "B22", "binding signal": 1.78}
    ]}
  ]
}
